Test results from the RNAGym collection of RNA variant scans (doi:10.1101/gad.245936.114).
Variants at the floor of the assay are shown more often than the library holds them.

B1: tRNA (parent)
chain: CUCUCGGUAGCCAAGUUGGUUUAAGGCGCAAGACUUUAAUUUAUCACUACGAAAUCUUGAGAUCGGGCGUUCGACUCGCCCCCGGGAGAUUUUUUCCUCGAGCAA

Variants of: B1
Assay: nonsense suppression (GFP-seq) (ratio to wild type); higher = more function; SUP4oc tRNA, yeast GFP reporter sort-seq
In short: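 To measure nonsense suppression, tRNA variants from a library carrying ~3% random mutations were integrated into the yeast genome alongside RFP and a GFP ochre reporter under galactose control. Growth took place in raffinose/galactose medium supplemented with 80 mg/L adenine, followed by sorting into GFP/RFP bins and Illumina sequencing of each bin (phred ≥30). For each variant with ≥100 reads and ≥30 cells, the bin median GFP/RFP values were weighted by its estimated cell share per bin and referenced to the unmutated parent tRNA.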

Point of comparison: U2A C27U, nonsense suppression 0.0357. Against it:
- C1U G19U U70G — lower, ≤ 0.026
- C1U G25C C29U U57A A62C — lower, ≤ 0.026
- C1U G25U G59C — lower, ≤ 0.026
- C1U G28A A62U — lower, ≤ 0.026
- C1U G28C U58G — lower, ≤ 0.026
- C1U G32U — lower, ≤ 0.026
- C1U G59C C81A — lower, ≤ 0.026
- C1U G61U G78C — lower, ≤ 0.026
- C1U G65C U70A C79U G86C — lower, ≤ 0.026
- C1U G66C A89G — lower, ≤ 0.026
- C1U G67A — lower, ≤ 0.026
- C1U G67C — lower, ≤ 0.026
- C1U G67C C82A — lower, ≤ 0.026
- C1U G67U U76C — lower, ≤ 0.026
- C1U G69C — lower, ≤ 0.026
- C1U G69C G73C G86U — lower, ≤ 0.026
- C1U G69C U76G — lower, ≤ 0.026
- C1U G73A — lower, ≤ 0.026
- C1U G73U — lower, ≤ 0.026
- C1U G73U U76A — lower, ≤ 0.026
- C1U G78A — higher, 0.0525
- C1U G78C G84C — lower, ≤ 0.026
- C1U G84U — lower, ≤ 0.026
- C1U G86A — lower, ≤ 0.026
- C1U G88C — lower, ≤ 0.026
- C1U U2A A54U — lower, ≤ 0.026
- C1U U2A G26A A54U C79A C82G — lower, ≤ 0.026
- C1U U2A U20G — lower, ≤ 0.026
- C1U U2C C12G G26U G65A G67A U70C — lower, ≤ 0.026
- C1U U2C G26A A54U C79A C82G — lower, ≤ 0.026
- C1U U2C U20G — lower, ≤ 0.026
- C1U U2G G32C G61A G78C C82U — lower, ≤ 0.026
- C1U U4A — higher, 0.0473
- C1U U4A U21A A60G G69C — lower, ≤ 0.026
- C1U U4C A62U G88U — lower, ≤ 0.026
- C1U U4C C77G C80U G85A — lower, ≤ 0.026
- C1U U8A A9G G15C G86U G88C — lower, ≤ 0.026
- C1U U8C A31G U35C — lower, ≤ 0.026
- C1U U8C C29U C82G — lower, ≤ 0.026
- C1U U8G A9G — lower, ≤ 0.026
- C1U U16A G25C C83G — lower, ≤ 0.026
- C1U U16C U58G C83A G84A — lower, ≤ 0.026
- C1U U16G A30G A54C G67U C83A — lower, ≤ 0.026
- C1U U16G G59A G84C — lower, ≤ 0.026
- C1U U17A C56A G65A C75A — lower, ≤ 0.026
- C1U U17A U58G G73A G84C — lower, ≤ 0.026
- C1U U20A — lower, ≤ 0.026
- C1U U20A G59U — lower, ≤ 0.026
- C1U U20C A24G G85C — lower, ≤ 0.026
- C1U U20G — lower, ≤ 0.026
- C1U U20G A31G C81G — lower, ≤ 0.026
- C1U U20G A33C U58A C81G — lower, ≤ 0.026
- C1U U21A G28U C29A — lower, ≤ 0.026
- C1U U21C — lower, ≤ 0.026
- C1U U21G G66A — lower, ≤ 0.026
- C1U U22C A23G C27G A60U A62C — lower, ≤ 0.026
- C1U U22G — lower, ≤ 0.026
- C1U U22G G69A — lower, ≤ 0.026
- C1U U55A U57A A62U C64A A87U — lower, ≤ 0.026
- C1U U55G C83U — lower, ≤ 0.026
- C1U U58G A87U A89G — lower, ≤ 0.026
- C1U U70A C75A — lower, ≤ 0.026
- C1U U76C — lower, ≤ 0.026
- U2A — lower, ≤ 0.026
- U2A A9C — lower, ≤ 0.026
- U2A A9C G66A — lower, ≤ 0.026
- U2A A9G A24C G66A — lower, ≤ 0.026
- U2A A9U A54C C56U G61A — lower, ≤ 0.026
- U2A A9U C72G — lower, ≤ 0.026
- U2A A9U C79A — lower, ≤ 0.026
- U2A A9U U16C C56U — lower, ≤ 0.026
- U2A A9U U20A U55A — lower, ≤ 0.026
- U2A A13C — lower, ≤ 0.026
- U2A A13C C64U G66A — lower, ≤ 0.026
- U2A A13C G61A — lower, ≤ 0.026
- U2A A13U C75G G85C — lower, ≤ 0.026
- U2A A13U C75U G85C — lower, ≤ 0.026
- U2A A14C G18U — lower, ≤ 0.026
- U2A A14G — lower, ≤ 0.026
- U2A A14G G18C C29G U63A — lower, ≤ 0.026
- U2A A14U A30U C34G C81A — lower, ≤ 0.026
- U2A A23U — lower, ≤ 0.026
- U2A A23U G26U U71A — lower, ≤ 0.026
- U2A A24C U55G G78A C81G — lower, ≤ 0.026
- U2A A24G G25A — lower, ≤ 0.026
- U2A A24G G85C — lower, ≤ 0.026
- U2A A24U C27A G61C G66A — lower, ≤ 0.026
- U2A A24U C27U — lower, ≤ 0.026
- U2A A30G — lower, ≤ 0.026
- U2A A30U A31G A62G G67A G86C — lower, ≤ 0.026
- U2A A31C C79G — lower, ≤ 0.026
- U2A A31C U57G U70C A87U — lower, ≤ 0.026
- U2A A31U — lower, ≤ 0.026
- U2A A31U A33G U58A — lower, ≤ 0.026
- U2A A33C G69U C79G G86A — lower, ≤ 0.026
- U2A A60C C68G — lower, ≤ 0.026
- U2A A89C — lower, ≤ 0.026
- U2A C3U A87C — lower, ≤ 0.026
- U2A C5A G18C A87U — lower, ≤ 0.026
- U2A C5U G6C C12A U63A G65C G86A — lower, ≤ 0.026
- U2A C11A A24U G78A — lower, ≤ 0.026
- U2A C11A U71G — lower, ≤ 0.026
- U2A C11G C27U U35A — lower, ≤ 0.026
- U2A C11G G78U A87C — lower, ≤ 0.026
- U2A C11U C12U — lower, ≤ 0.026
- U2A C11U G88A — lower, ≤ 0.026
- U2A C12G C34G — lower, ≤ 0.026
- U2A C12U U17G C34G U71G C72A G78A — lower, ≤ 0.026
- U2A C27A U76C — lower, ≤ 0.026
- U2A C27A U76G — lower, ≤ 0.026
- U2A C27G — lower, ≤ 0.026
- U2A C27U C29U G88A — lower, ≤ 0.026
- U2A C29A A87C — lower, ≤ 0.026
- U2A C29U C75G — lower, ≤ 0.026
- U2A C34A — lower, ≤ 0.026
- U2A C34A G86C — lower, ≤ 0.026
- U2A C34A G88U — lower, ≤ 0.026
- U2A C34U — lower, ≤ 0.026
- U2A C56A G67A — lower, ≤ 0.026
- U2A C77G — lower, ≤ 0.026
- U2A C79A — lower, ≤ 0.026
- U2A C81U — higher, 0.0376
- U2A G6A — lower, ≤ 0.026
- U2A G6A G25U A33G A62C U71A — lower, ≤ 0.026
- U2A G6C G19C A24C C27G — lower, ≤ 0.026
- U2A G7U — lower, ≤ 0.026
- U2A G7U U70G — lower, ≤ 0.026
- U2A G10U C27A — lower, ≤ 0.026
- U2A G15A — lower, ≤ 0.026
- U2A G15C C64U — lower, ≤ 0.026
- U2A G15C U55G U70C C77A — lower, ≤ 0.026
- U2A G15U A24C U63A G67A G73C — lower, ≤ 0.026
- U2A G18C A60U — lower, ≤ 0.026
- U2A G18C C27G G32C C68U — lower, ≤ 0.026
- U2A G18C U35A U70A G85U — lower, ≤ 0.026
- U2A G18U — lower, ≤ 0.026
- U2A G18U G67C — lower, ≤ 0.026
- U2A G19C — lower, ≤ 0.026
- U2A G19C G85U — lower, ≤ 0.026
- U2A G25U A30C U70C — lower, ≤ 0.026
- U2A G25U A31G A33G C68U — lower, ≤ 0.026
- U2A G25U C27U A62U — lower, ≤ 0.026
- U2A G26C C82G — lower, ≤ 0.026
- U2A G26C G32U G73C — lower, ≤ 0.026
- U2A G28C G66C — lower, ≤ 0.026
- U2A G28U G32A A74G — lower, ≤ 0.026
- U2A G32A — lower, ≤ 0.026
- U2A G32U U35G — lower, ≤ 0.026
- U2A G59C — lower, ≤ 0.026
- U2A G61U A74C G86C — lower, ≤ 0.026
- U2A G65C — lower, ≤ 0.026
- U2A G66C — lower, ≤ 0.026
- U2A G66U U76C — lower, ≤ 0.026
- U2A G69U — lower, ≤ 0.026
- U2A G73C — lower, ≤ 0.026
- U2A G84A A89G — lower, ≤ 0.026
- U2A U4A G7A — lower, ≤ 0.026
- U2A U4A G66C A87C — lower, ≤ 0.026
- U2A U4C U16C — higher, 0.0971
- U2A U4G — higher, 0.203
- U2A U4G G73C — lower, ≤ 0.026
- U2A U8A G10U C29G U63C — lower, ≤ 0.026
- U2A U8C C34U U57C U63G — lower, ≤ 0.026
- U2A U8C U20A — lower, ≤ 0.026
- U2A U8G C12G G32A U57C C64A — lower, ≤ 0.026
- U2A U8G U22G — lower, ≤ 0.026
